From a collection of fitness landscapes (doi:10.1016/j.celrep.2020.107928) come the findings set out here.

B1: Caulobacter ParB omega fusion; a variant is named by its letters at X, in order, B8GW30 (parent)
chain: MESVVVGEPGMSEGRRGLGRGLSALLGEVDAAPAQAPGEQLGGSREAPIEILQRNPDQPRRTFREEDLEDLSNSIREKGVLQPILVRPSPDTAGEYQIVAGERAWRAAQRAGLKTVPIMVRELDDLAVLEIGIIENVQRADLNVLEEALSYKVLMEKFERTQENIAQTIGKSXSHVANXMRLLXLPDEVQSYLVSGELTAXHARAIAAAADPVALAKQIIEGGLSVRETEALARKAPNLSAGKSKGGRPPRVKDTDTQALESDLSSVLGLDVSIDHRGSTGTLTITYATLEQLDDLCNRLTRGI

The full ranking holds about 81,000 sequences; the median of “one-hybrid fitness for binding parS DNA” is about -0.17, and the highest 2% start at about 0.51. This is one part of the list. Some results are limits rather than exact numbers.

Variants of B1 are the subject of this assay. Briefly: one-hybrid fitness for binding parS DNA (scaled: cognate 1, non-cognate 0); higher = stronger binding. Particulars: with parS DNA site. The gist of the method: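 In E. coli USO, a HIS3 reporter with its site placed 19 bp from the promoter was used to select Caulobacter ParB variants randomised at four specificity codons. Growth lasted 48 hours at 37°C on histidine-free M9 containing 0.1 mM IPTG and 5 mM 3-AT. Fitness was taken as the log change in variant-to-wild-type read ratio from Illumina sequencing of pre- and post-selection plasmids, rescaled between the non-cognate and cognate sites.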
Consider IKWW, for which the “one-hybrid fitness for binding parS DNA” value worked out at 0.205.
The figure for WIHG is at most 0.2; for RMWS it is 1.05.
For the variant TCYG, the “one-hybrid fitness for binding parS DNA” value is at most 0.2.
The figure for AWRM is at most 0.2; for LMRR it is at most 0.2.
The figure for SKYP is at most 0.2.
As to RFLI, the “one-hybrid fitness for binding parS DNA” value was at most 0.2.
As to TWAR, the “one-hybrid fitness for binding parS DNA” value is at most 0.2.
For MWVG the value was at most 0.2; for QIHI, at most 0.2.
Take LFVT: the “one-hybrid fitness for binding parS DNA” value was at most 0.2.
GLNV: the “one-hybrid fitness for binding parS DNA” value is at most 0.2.
As for SYNV, the “one-hybrid fitness for binding parS DNA” value was at most 0.2.
For KRHT the value was at most 0.2.
Turning to ESRG, the “one-hybrid fitness for binding parS DNA” value was at most 0.2.
QLSH: the “one-hybrid fitness for binding parS DNA” value is at most 0.2.
For the variant PGSK, the “one-hybrid fitness for binding parS DNA” value was at most 0.2.
For RCSM the value was 0.327.
As to VCRV, the “one-hybrid fitness for binding parS DNA” value was at most 0.2.
The figure for GRKR is at most 0.2.
In the case of CCTE, the “one-hybrid fitness for binding parS DNA” value was at most 0.2.
For QSPH the value was at most 0.2; for YNVS, at most 0.2.
The figure for RLYC is 1.01; for VMEL it is at most 0.2; for CRRY it is at most 0.2.
For RMQH the value was 0.313; for WFGS, at most 0.2; for SASQ, at most 0.2.
In the case of YRHV, the “one-hybrid fitness for binding parS DNA” value is at most 0.2.
Turning to EEHS, the “one-hybrid fitness for binding parS DNA” value was at most 0.2.
For the variant YLTR, the “one-hybrid fitness for binding parS DNA” value was at most 0.2.
The figure for AEFS is at most 0.2.
The figure for RQSH is at most 0.2.
For HYLE, the “one-hybrid fitness for binding parS DNA” value was at most 0.2.
For the variant SACV, the “one-hybrid fitness for binding parS DNA” value is at most 0.2.
With TNMG, the “one-hybrid fitness for binding parS DNA” value is at most 0.2.
In the case of GGNC, the “one-hybrid fitness for binding parS DNA” value was at most 0.2.
The figure for VEGC is at most 0.2; for TALL it is at most 0.2; for CSNR it is at most 0.2.
For the variant DGDR, the “one-hybrid fitness for binding parS DNA” value was at most 0.2.
As for CTTF, the “one-hybrid fitness for binding parS DNA” value was at most 0.2.
For GDFY the value was at most 0.2.
The figure for EKPS is at most 0.2; for PHNN it is at most 0.2.
For CTHF the value was at most 0.2; for GECC, at most 0.2.
On to LHNK, for which the “one-hybrid fitness for binding parS DNA” value was at most 0.2.
PQPF: the “one-hybrid fitness for binding parS DNA” value is at most 0.2.
For EQGT the value was at most 0.2; for YSSC, at most 0.2.
For IQHS the value was at most 0.2; for VHQM, at most 0.2.
As for HNLT, the “one-hybrid fitness for binding parS DNA” value is at most 0.2.
For DHCS the value was at most 0.2; for RYHG, 1.
RWER: the “one-hybrid fitness for binding parS DNA” value is at most 0.2.
For TWTS, the “one-hybrid fitness for binding parS DNA” value was at most 0.2.
With HIRS, the “one-hybrid fitness for binding parS DNA” value was at most 0.2.
Take LMPP: the “one-hybrid fitness for binding parS DNA” value is at most 0.2.
In the case of RANA, the “one-hybrid fitness for binding parS DNA” value turned out to be 0.595.
VPGY: the “one-hybrid fitness for binding parS DNA” value is at most 0.2.
As to RGTM, the “one-hybrid fitness for binding parS DNA” value was at most 0.2.
As to DPHI, the “one-hybrid fitness for binding parS DNA” value was at most 0.2.
The figure for APHW is at most 0.2.
The figure for KEVT is at most 0.2.
For VPCF the value was at most 0.2; for DKRG, at most 0.2.
On to SPDV, for which the “one-hybrid fitness for binding parS DNA” value is at most 0.2.
Consider LQDC, for which the “one-hybrid fitness for binding parS DNA” value is at most 0.2.
For YVVT the value was at most 0.2.
The figure for VSNT is at most 0.2; for EKSC it is at most 0.2; for TQWI it is at most 0.2.
For PPNL the value was at most 0.2; for EDTR, at most 0.2; for RVFE, at most 0.2.
Consider TLYI, for which the “one-hybrid fitness for binding parS DNA” value was at most 0.2.
Consider TCPV, for which the “one-hybrid fitness for binding parS DNA” value was at most 0.2.
For NTVM the value was at most 0.2; for TMRS, at most 0.2; for TIFP, at most 0.2.
As for RHRR, the “one-hybrid fitness for binding parS DNA” value was at most 0.2.
For QTEN, the “one-hybrid fitness for binding parS DNA” value is at most 0.2.
Turning to PPIV, the “one-hybrid fitness for binding parS DNA” value was at most 0.2.
The figure for VSQV is at most 0.2; for VLKA it is at most 0.2; for TTQC it is at most 0.2.
The figure for TTLG is at most 0.2; for KPRR it is at most 0.2; for SKER it is at most 0.2.
Turning to FSRG, the “one-hybrid fitness for binding parS DNA” value was at most 0.2.
Take PCPN: the “one-hybrid fitness for binding parS DNA” value was at most 0.2.
In the case of STDY, the “one-hybrid fitness for binding parS DNA” value is at most 0.2.
As for QLGV, the “one-hybrid fitness for binding parS DNA” value was at most 0.2.
The figure for VMSR is at most 0.2; for RHWY it is 0.317.
For VRQY the value was at most 0.2; for FDNL, at most 0.2.
For VQCY the value was at most 0.2; for PRPN, at most 0.2; for VMCN, at most 0.2.
As for SPPV, the “one-hybrid fitness for binding parS DNA” value is at most 0.2.
With AYIL, the “one-hybrid fitness for binding parS DNA” value is at most 0.2.
For the variant PVAM, the “one-hybrid fitness for binding parS DNA” value was at most 0.2.
Regarding QCVS, the “one-hybrid fitness for binding parS DNA” value was at most 0.2.
For RELM the value was at most 0.2; for RFSF, 0.26.
As to HRHW, the “one-hybrid fitness for binding parS DNA” value was at most 0.2.
Turning to FKYE, the “one-hybrid fitness for binding parS DNA” value is at most 0.2.
For KVVS, the “one-hybrid fitness for binding parS DNA” value is at most 0.2.
For DSVT the value was at most 0.2; for CVPC, at most 0.2; for VVIE, at most 0.2.
The figure for WGDG is at most 0.2; for QIPL it is at most 0.2; for IMTM it is at most 0.2.
For RHKQ the value was at most 0.2; for DGCG, at most 0.2.
Take YRYS: the “one-hybrid fitness for binding parS DNA” value came out at 0.329.
The figure for FMNI is at most 0.2; for QGMH it is at most 0.2.
Regarding QCDY, the “one-hybrid fitness for binding parS DNA” value is at most 0.2.
Consider FMTW, for which the “one-hybrid fitness for binding parS DNA” value is at most 0.2.
IANG: the “one-hybrid fitness for binding parS DNA” value was at most 0.2.
Regarding LHHD, the “one-hybrid fitness for binding parS DNA” value was at most 0.2.
The figure for CMAY is at most 0.2; for SIND it is at most 0.2; for CYLV it is at most 0.2.
As for PCSW, the “one-hybrid fitness for binding parS DNA” value is at most 0.2.
For NNLV the value was at most 0.2; for AVRE, at most 0.2; for WRQG, at most 0.2.
The figure for TEMT is at most 0.2; for PPVD it is at most 0.2; for AMPG it is at most 0.2.
Turning to NPVC, the “one-hybrid fitness for binding parS DNA” value was at most 0.2.
The figure for KWPT is at most 0.2; for KLKG it is at most 0.2.
For EHTR the value was at most 0.2.
The figure for APKM is at most 0.2; for RRPQ it is at most 0.2.
For VRRM, the “one-hybrid fitness for binding parS DNA” value is at most 0.2.
Consider PDIC, for which the “one-hybrid fitness for binding parS DNA” value was at most 0.2.
Regarding ESCF, the “one-hybrid fitness for binding parS DNA” value is at most 0.2.
For the variant QSPF, the “one-hybrid fitness for binding parS DNA” value is at most 0.2.
On to AHRF, for which the “one-hybrid fitness for binding parS DNA” value was at most 0.2.
In the case of WLCF, the “one-hybrid fitness for binding parS DNA” value is at most 0.2.
Turning to CLCR, the “one-hybrid fitness for binding parS DNA” value was at most 0.2.
For ALRV, the “one-hybrid fitness for binding parS DNA” value is at most 0.2.
QISC: the “one-hybrid fitness for binding parS DNA” value is at most 0.2.
